Reference: paper PMC4336329 (PLoS ONE, 2015)
The whole screen tested about 310,000 compounds, of which about 2,200 (0.71%) showed an effect of 50% or more. Effects have a minus sign here. The list shows a part of the results.

Target: human ether-à-go-go-related gene (hERG) potassium channel (human, UniProt Q12809)
Experiment: primary screen, population patch clamp on CHO cells stably expressing hERG

Chain of human ether-à-go-go-related gene (hERG) potassium channel (Q12809 whole entry, looked up): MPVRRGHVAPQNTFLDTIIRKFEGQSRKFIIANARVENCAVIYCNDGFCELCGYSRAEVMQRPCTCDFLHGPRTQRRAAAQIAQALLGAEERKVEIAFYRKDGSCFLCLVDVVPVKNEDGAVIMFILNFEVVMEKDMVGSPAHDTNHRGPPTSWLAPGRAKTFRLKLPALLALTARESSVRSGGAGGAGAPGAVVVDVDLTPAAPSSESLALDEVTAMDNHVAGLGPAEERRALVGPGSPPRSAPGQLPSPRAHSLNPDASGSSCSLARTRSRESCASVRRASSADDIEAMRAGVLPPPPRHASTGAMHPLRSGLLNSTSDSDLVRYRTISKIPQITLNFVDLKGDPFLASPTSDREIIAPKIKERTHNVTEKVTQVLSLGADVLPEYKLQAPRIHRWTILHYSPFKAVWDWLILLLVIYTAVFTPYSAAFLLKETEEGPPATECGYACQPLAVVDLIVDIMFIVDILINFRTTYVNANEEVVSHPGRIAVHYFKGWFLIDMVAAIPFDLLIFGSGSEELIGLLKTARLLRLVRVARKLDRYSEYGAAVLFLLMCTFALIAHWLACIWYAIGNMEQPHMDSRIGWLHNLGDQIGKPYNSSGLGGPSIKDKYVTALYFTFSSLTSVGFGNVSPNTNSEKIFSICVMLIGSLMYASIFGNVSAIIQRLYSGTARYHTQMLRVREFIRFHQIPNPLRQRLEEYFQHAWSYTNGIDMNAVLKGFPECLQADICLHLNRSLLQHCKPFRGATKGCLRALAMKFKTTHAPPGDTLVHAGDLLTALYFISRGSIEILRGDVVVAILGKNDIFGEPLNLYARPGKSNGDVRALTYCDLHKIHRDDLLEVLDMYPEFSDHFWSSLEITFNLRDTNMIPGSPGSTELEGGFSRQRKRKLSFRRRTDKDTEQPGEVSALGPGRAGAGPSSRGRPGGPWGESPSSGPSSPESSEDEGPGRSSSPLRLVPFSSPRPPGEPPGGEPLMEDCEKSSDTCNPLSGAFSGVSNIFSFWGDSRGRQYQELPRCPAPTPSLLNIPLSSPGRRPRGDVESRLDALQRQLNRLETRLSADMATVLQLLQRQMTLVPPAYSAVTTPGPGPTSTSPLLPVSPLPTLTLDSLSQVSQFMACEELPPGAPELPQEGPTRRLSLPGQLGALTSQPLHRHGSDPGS

SMILES	hERG current change (%, negative = inhibition) at 1uM
FC(F)(F)c1cccc(NCc2n[nH]c(=S)n2C2CCCCC2)c1	11.3%
O=C(CCn1nnc2ccccc21)Nc1nnc(Cc2ccccc2)s1	9.47%
O=C(/C=C/c1ccc2c(c1)OCO2)NCCSCc1ccc(Cl)cc1	17.9%
COc1ccc(C2=NN(CN3C(=O)C(=O)c4ccccc43)C(c3ccc(Br)cc3)C2)cc1 (stereo not drawn)	19.4%
COCCCNC(=O)c1ccc(Cn2c(=O)c3ccccc3n(CC(=O)NCc3ccco3)c2=O)cc1	6.89%
C#CCOCCOCCOCCNc1nc(N2CCN(C(=O)CCCCCCCCCCNC(=O)[C@H](CO)n3cc(CCCSC)nn3)CC2)nc(N2CCN(C(=O)CCCCCCCCCCNC(=O)[C@H](CCCN=C(N)N)n3cc(C[C@@H](C)CC)nn3)CC2)n1	10.7%
CC1CCN(c2ccccc2NC(=O)c2ccc([N+](=O)[O-])o2)CC1	16.1%
Cc1nn2c(-c3ccccn3)ccnc2c1Cl	17.7%
Cc1cnc(CN(C)Cc2c(C(=O)N3CCCCCCC3)nc3ccc(Cl)cn23)[nH]1	3.9%
CC(OC(=O)c1oc2ccccc2c1COc1ccccc1)C(=O)NC(N)=O (stereo not drawn)	-6.83%
CN1CC(c2ccccn2)C2(SC(=S)N(Cc3ccccc3)C2=O)C12C(=O)Nc1ccccc12 (stereo not drawn)	0.725%
CCC(=O)N1CCN(c2ccc(NC(=O)c3ccc4ccccc4c3)cc2)CC1	19.1%
COc1cc(Nc2nc3ccccc3n3nnnc23)cc(OC)c1OC	15.5%
CC(C)[C@H](NC(=O)N1CCn2c1nc1ccccc12)C(=O)NCC1CCCO1 (stereo partly drawn)	5.34%
Cc1ccc(CNC(=O)COC(=O)CCC(=O)c2cccs2)cc1	9.05%
Cc1ccc(S(=O)(=O)c2c(COC(=O)c3cccc(Cl)c3)c(-c3ccccc3)nn2C)cc1	-12.9%
CCCc1ccc2c(N)c(C#N)sc2n1	1.34%
Cc1cccc(N=Cc2c(O)n(C)c(=O)n(C)c2=O)c1	11%
O=C(COC(=O)Cn1[nH]c(=O)c2ccccc2c1=O)NNC(=O)c1ccccc1	14.1%
Cc1ccccc1N(C(=O)Cn1nnc(-c2ccc(F)cc2)n1)C(C(=O)NC(C)(C)C)c1ccncc1 (stereo not drawn)	5.87%
CN(C)Cc1ccccc1Sc1ccc2c(c1)CCCC2.O=C(O)C(=O)O	8.85%

SMILES	hERG current change (%, negative = inhibition) at 1uM
COc1ccccc1N1CCN(Cc2nc3ccsc3c(=O)[nH]2)CC1	10.4%
Cc1ccnc(NC(=O)C2CCC(CNc3c(N4CCCC4)c(=O)c3=O)CC2)c1 (stereo not drawn)	-2.38%
COc1ccc(NC(=O)c2ccc(COCC(F)(F)C(F)F)cc2)cc1OC	5.57%
Cc1cccc(NC(=O)NNC(=O)c2ccc3ccccc3c2)c1	19.2%
CCOC(=O)c1sc2nc3c(cc2c1N)COC(C(C)C)C3 (stereo not drawn)	5.75%
Cc1c(NC(=O)CSCc2ccco2)c(=O)n(-c2ccccc2)n1C	5.21%
CC(C)Cc1cc(CN2CCC(CO)(Cc3cccc(C(F)(F)F)c3)CC2)[nH]n1	-66%
O=C(N/N=C/c1c(O)ccc2ccccc12)c1ccc(CO)nc1	12.8%
COc1ccc(C(=O)CSc2cc(C)nc3nc(C)nn23)cc1OC	6.41%
COC(=O)Nc1ccc(S(=O)(=O)N(C)C)cc1	3.02%
Cc1ccc(/C=N/N(C)S(=O)(=O)c2ccc(C)cc2)cc1	3.19%
CC(=O)c1ccc(N2CCN(C(=S)Nc3cc(C)ccc3C)CC2)cc1	3.76%
O=C(CC1SC(N2CCCC2)=NC1=O)Nc1ccc(C(=O)Nc2ccccc2)cc1 (stereo not drawn)	13.9%
COc1cccc(C(=O)NNC(=O)c2ccc3ccccc3c2O)c1	11.3%
COC(=O)C1=C(c2cc3ccccc3s2)C[C@@H]2CC[C@H]1N2C(=O)N1CCCCC1	2.41%
Cc1ccc(C)c(NCc2ccccc2CO)c1	-2.79%
Cc1cc(=O)n2[nH]c(NCc3c(F)cccc3Cl)nc2n1	15%
COc1ccccc1C(=O)N1CCN(Cc2nc3cc([N+](=O)[O-])ccc3n2C)CC1	-16.4%
COc1ccc(CNC(=O)CSc2nc3ccc(C)cc3[nH]2)cc1OC	16.6%
CCc1nn(CCCC(=O)NCc2ccccc2Br)c(=O)c2cc3occc3n12	-10.5%
CCc1ccccc1OCC(=O)Nc1nc(-c2cccnc2)cs1	10.6%

SMILES	hERG current change (%, negative = inhibition) at 1uM
CC(Oc1ccccc1)C(=O)N1CCN=C1SCc1cccc(F)c1 (stereo not drawn)	1.87%
CCOC(=O)C1CCN(C(=O)Nc2cccc(OC)c2)CC1	14.4%
COCCn1cnnc1SCC(=O)Nc1cccc(S(=O)(=O)N2CCCCCC2)c1	-16.8%
CC(=O)N1CCN(c2ccccc2NC(=O)COc2cc(C)cc(C)c2)CC1	-18.3%
COCCCNC(=O)C1=CCN(S(=O)(=O)c2ccc(OC)cc2)CC1	10.6%
CC(C)c1ccc(N2C(=NC(=O)C3CCCO3)SC3CS(=O)(=O)CC32)cc1 (stereo not drawn)	14.4%
Cl.Nc1nc(N2CCN(C(=O)c3ccco3)CC2)nc2ccc(Br)cc12	-5.82%
O=C(NC(Cc1ccccc1)C(=O)O)/C(=C\c1ccccc1F)NC(=O)c1ccccc1 (stereo not drawn)	19.2%
CC(C)CN(C(=O)CN1CCN(S(=O)(=O)c2ccccc2)CC1)c1c(N)n(CC(C)C)c(=O)[nH]c1=O	-2.18%
CCOC(=O)N1CCN=C1SCc1ccc(C(F)(F)F)cc1	8.48%
CCSC1=NN2CCS(=O)(=O)N=C2S1	23%
Cn1c(=O)oc2cc(S(=O)(=O)N3CCC(C(=O)N4CCc5ccccc5C4)CC3)ccc21	17.5%
O=S(=O)(NCCOCC(F)(F)F)c1ccc2oc3ccccc3c2c1	6.44%
Cc1cc(C)cc(NC(=S)N=Nc2c(O)n(C)c3ccc(S(=O)(=O)N4CCOCC4)cc23)c1	0.994%
COc1ccc(NC(=O)COc2nc(N(C)C)nc(N(C)C)n2)cc1	8.43%
O=C(NCCCN1CCOCC1)c1ccc(S(=O)(=O)Nc2cccc(C(F)(F)F)c2)cc1	4.95%
Cc1ccc(C(=O)Nc2nc(-c3ccc(F)cc3)cs2)o1	0.92%
O=C1CCCCC1Sc1nnc(Cc2cccs2)n1CCc1ccccc1 (stereo not drawn)	5.25%
CCOC(=O)c1c(C)[nH]c(C(=O)N2CCCC(C(=O)c3cccc(OC)c3)C2)c1C (stereo not drawn)	2.58%
O=C(CN1C(=O)c2cccc3cccc1c23)Nc1cccnc1	0.892%
OC(c1ccccn1)(c1ccccn1)c1ccccn1	9.51%

SMILES	hERG current change (%, negative = inhibition) at 1uM
Cc1ccsc1/C=N/NC(=O)c1ccc(-n2cccc2)cc1	11.2%
O=C(COC(=O)COc1ccc(Cl)cc1)NC1CCCCC1	10.9%
O=C(O)CCc1ccc(-c2ccc(Cl)cc2)n1Cc1ccco1	3.04%
CCOC(=O)c1cccc(NC(=O)c2cc3ccccc3o2)c1	10.2%
C[C@]12CCC(=O)CC1CCC1C2CC[C@@]2(C)C1CC[C@@]21CCO1 (stereo partly drawn)	11%
CNC(=S)N1CCN(c2c(F)cc3c(=O)c(C(=O)O)cn(C4CC4)c3c2OC)CC1C (stereo not drawn)	12.9%
Fc1ccc2nc(Nc3nc4c(F)cccc4s3)sc2c1	18.1%
O=S(=O)(c1ccccc1Cl)N1CCCC1c1nc(-c2ccccc2Cl)no1 (stereo not drawn)	16.2%
Cn1nccc1C(=O)N1CCN(C23CC4CC(CC(C4)C2)C3)CC1	-5.46%
NS(=O)(=O)c1ccc(N2N=C(c3ccccc3)CC2c2cccc(F)c2)cc1 (stereo not drawn)	7.04%
COC(=O)CC1C(=O)NCCN1C(=O)c1sc2ccccc2c1Cl (stereo not drawn)	11.9%
O=C(NCCCN1CCOCC1)c1onc(CSc2ccc(F)c(F)c2)c1C(=O)NCCCN1CCOCC1	13.2%
NC(=O)c1ccc(NC(=O)CCC(=O)N2CCN(S(=O)(=O)c3ccc(Cl)cc3)CC2)cc1	8%
O=C(c1ccc([N+](=O)[O-])s1)N1CCc2ccccc2C1	21.2%
COc1ccc(-c2nnc(SC(=O)N3c4ccccc4Sc4ccccc43)o2)cc1	17.6%
Cn1c(=O)[nH]c(=O)c2c1nc(N1CCNCC1)n2Cc1ccccc1	-2.29%
COC(=O)c1cc(C(=O)N2CCOCC2)cc([N+](=O)[O-])c1	15.1%
S=c1[nH]nc(CSc2nc3ccccc3s2)n1Cc1ccccc1	8.36%
CCCc1nn2c(=O)cc(COc3cccc(NC(=O)c4ccco4)c3)nc2s1	-0.535%
COc1ccc(-c2nc(N3CCCC3)[nH]c(=O)c2C#N)cc1	11.6%
Cc1nn(Cc2ccccc2)c(C)c1CNC(=O)[C@H](C)N=C1NS(=O)(=O)c2ccccc21	10.4%
